# The list shows a part of the results.
# Experiments:
# Test in all cases: glycan array binding signal (z-score within array); higher = stronger binding
# Settings in all cases: glycan notation: IUPAC condensed, linker removed
# [1] = molecular target: Fuc(a1-2)Gal(b1-4)GlcNAc(b1-3)Gal(b1-4)GlcNAc(b1-3)Gal(b1-4)GlcNAc
# Summary of the method: (§1)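 The Consortium for Functional Glycomics database supplied 3228 glycan arrays, of which those lacking an available protein sequence were dropped. The binding signal, a within-array Z-score, was averaged across arrays of the same protein sequence and across linkers. Negative scores can be read as non-binding.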
# [2] = molecular target: Fuc(a1-2)Gal(b1-4)GlcNAc(b1-3)GalNAc
# Summary of the method: as §1
# [3] = molecular target: Fuc(a1-2)Gal(b1-4)GlcNAc(b1-3)[Fuc(a1-2)Gal(b1-4)GlcNAc(b1-6)]GalNAc
# Summary of the method: as §1
# [4] = molecular target: Fuc(a1-2)Gal(b1-4)GlcNAc(b1-3)[Fuc(a1-3)[Gal(b1-4)]GlcNAc(b1-6)]Gal(b1-4)Glc
# Summary of the method: as §1
# [5] = molecular target: Fuc(a1-2)Gal(b1-4)GlcNAc(b1-6)GalNAc
# Summary of the method: as §1
# [6] = molecular target: Fuc(a1-2)Gal(b1-4)GlcNAc6S
# Summary of the method: as §1
# [7] = molecular target: Fuc(a1-2)Gal(b1-4)[Fuc(a1-3)]GlcNAc
# Summary of the method: as §1
# [8] = molecular target: Fuc(a1-2)Gal(b1-4)[Fuc(a1-3)]GlcNAc(b1-2)Man(a1-3)[Fuc(a1-2)Gal(b1-4)[Fuc(a1-3)]GlcNAc(b1-2)Man(a1-6)]Man(b1-4)GlcNAc(b1-4)[Fuc(a1-6)]GlcNAc
# Summary of the method: as §1
# [9] = molecular target: Fuc(a1-2)Gal(b1-4)[Fuc(a1-3)]GlcNAc(b1-2)[Fuc(a1-2)Gal(b1-4)[Fuc(a1-3)]GlcNAc(b1-4)]Man(a1-3)[Fuc(a1-2)Gal(b1-4)[Fuc(a1-3)]GlcNAc(b1-2)Man(a1-6)]Man(b1-4)GlcNAc(b1-4)GlcNAc
# Summary of the method: as §1
# [10] = molecular target: Fuc(a1-2)Gal(b1-4)[Fuc(a1-3)]GlcNAc(b1-3)Gal(b1-4)[Fuc(a1-3)]GlcNAc
# Summary of the method: as §1
# [11] = molecular target: Fuc(a1-2)Gal(b1-4)[Fuc(a1-3)]GlcNAc(b1-3)Gal(b1-4)[Fuc(a1-3)]GlcNAc(b1-3)Gal(b1-4)[Fuc(a1-3)]GlcNAc
# Summary of the method: as §1
# [12] = molecular target: Fuc(a1-2)Gal(b1-4)[Fuc(a1-3)]GlcNAc(b1-3)GalNAc
# Summary of the method: as §1
# [13] = molecular target: Fuc(a1-2)Gal(b1-4)[Fuc(a1-3)]GlcNAc(b1-3)[Neu5Ac(a2-6)Gal(b1-4)GlcNAc(b1-6)]Gal(b1-4)Glc
# Summary of the method: as §1
# [14] = molecular target: Fuc(a1-2)Gal3S(b1-4)GlcNAc
# Summary of the method: as §1
# [15] = molecular target: Fuc(a1-2)Gal6S(b1-3)GlcNAc
# Summary of the method: as §1
# [16] = molecular target: Fuc(a1-2)Gal6S(b1-3)GlcNAc6S
# Summary of the method: as §1
# Fuc(a1-2)Gal6S(b1-4)Glc = molecular target: Fuc(a1-2)Gal6S(b1-4)Glc
# Summary of the method: as §1
# [17] = molecular target: Fuc(a1-2)Gal6S(b1-4)Glc6S
# Summary of the method: as §1
# Fuc(a1-2)[Gal(a1-3)]Gal = molecular target: Fuc(a1-2)[Gal(a1-3)]Gal
# Summary of the method: as §1
# [18] = molecular target: Fuc(a1-2)[Gal(a1-3)]Gal(b1-3)GalNAc
# Summary of the method: as §1
# [19] = molecular target: Fuc(a1-2)[Gal(a1-3)]Gal(b1-3)GalNAc(b1-3)Gal(a1-4)Gal(b1-4)Glc
# Summary of the method: as §1
# [20] = molecular target: Fuc(a1-2)[Gal(a1-3)]Gal(b1-3)GlcNAc
# Summary of the method: as §1
# [21] = molecular target: Fuc(a1-2)[Gal(a1-3)]Gal(b1-3)GlcNAc(b1-2)Man(a1-3)[Fuc(a1-2)[Gal(a1-3)]Gal(b1-3)GlcNAc(b1-2)Man(a1-6)]Man(b1-4)GlcNAc(b1-4)GlcNAc
# Summary of the method: as §1
# [22] = molecular target: Fuc(a1-2)[Gal(a1-3)]Gal(b1-3)GlcNAc(b1-2)Man(a1-3)[Fuc(a1-2)[Gal(a1-3)]Gal(b1-3)GlcNAc(b1-2)Man(a1-6)]Man(b1-4)GlcNAc(b1-4)[Fuc(a1-6)]GlcNAc
# Summary of the method: as §1
# [23] = molecular target: Fuc(a1-2)[Gal(a1-3)]Gal(b1-3)GlcNAc(b1-3)GalNAc
# Summary of the method: as §1
# [24] = molecular target: Fuc(a1-2)[Gal(a1-3)]Gal(b1-3)GlcNAc(b1-6)GalNAc
# Summary of the method: as §1
# [25] = molecular target: Fuc(a1-2)[Gal(a1-3)]Gal(b1-4)Glc
# Summary of the method: as §1
# [26] = molecular target: Fuc(a1-2)[Gal(a1-3)]Gal(b1-4)GlcNAc
# Summary of the method: as §1
# [27] = molecular target: Fuc(a1-2)[Gal(a1-3)]Gal(b1-4)GlcNAc(b1-2)Man
# Summary of the method: as §1
# [28] = molecular target: Fuc(a1-2)[Gal(a1-3)]Gal(b1-4)GlcNAc(b1-2)Man(a1-3)[Fuc(a1-2)[Gal(a1-3)]Gal(b1-4)GlcNAc(b1-2)Man(a1-6)]Man(b1-4)GlcNAc(b1-4)GlcNAc
# Summary of the method: as §1
binder,measurement,setting,value
Tamarinin (protein) CDDSARAGNIVVYWGQGGSDNSEGSLKEACKSGHYNMIVLQQLIVYDDGRDPDLNLGAHCSDCTKLEEQIKYCQNKDIKILLQIGQVVPTQEDVKDVTKNLSEYLLKNFFSGKSGPLGEVYLNGIDIASVPEGNNLKFDELVEALNDSSTERRIYLSASPLCVYPDYYLNKAIQTEKLDFLFVQFFYQNPCIYTEGNPENLFEAMKTWTKNVPESMIFMALPATPNLDGYIPPRVLNKEILPAVSEASNFAGVMIFDRYFDRFRKYSSKIK,glycan array binding signal (z-score),[1],-0.314
same,glycan array binding signal (z-score),[2],0.146
same,glycan array binding signal (z-score),[3],4.01
same,glycan array binding signal (z-score),[4],-0.458
same,glycan array binding signal (z-score),[5],0.378
same,glycan array binding signal (z-score),[6],-0.247
same,glycan array binding signal (z-score),[7],-0.291
same,glycan array binding signal (z-score),[8],-0.025
same,glycan array binding signal (z-score),[9],-0.167
same,glycan array binding signal (z-score),[10],-0.441
same,glycan array binding signal (z-score),[11],-0.292
same,glycan array binding signal (z-score),[12],0.311
same,glycan array binding signal (z-score),[13],-0.322
same,glycan array binding signal (z-score),[14],-0.442
same,glycan array binding signal (z-score),[15],-0.05
same,glycan array binding signal (z-score),[16],4.89
same,glycan array binding signal (z-score),Fuc(a1-2)Gal6S(b1-4)Glc,-0.164
same,glycan array binding signal (z-score),[17],0.044
same,glycan array binding signal (z-score),Fuc(a1-2)[Gal(a1-3)]Gal,-0.275
same,glycan array binding signal (z-score),[18],-0.318
same,glycan array binding signal (z-score),[19],-0.147
same,glycan array binding signal (z-score),[20],-0.121
same,glycan array binding signal (z-score),[21],0.037
same,glycan array binding signal (z-score),[22],1.46
same,glycan array binding signal (z-score),[23],0.28
same,glycan array binding signal (z-score),[24],-0.109
same,glycan array binding signal (z-score),[25],-0.32
same,glycan array binding signal (z-score),[26],-0.419
same,glycan array binding signal (z-score),[27],-0.154
same,glycan array binding signal (z-score),[28],-0.229
